In PubChem BioAssay AID1346428 (National Center for Advancing Translational Sciences (NCATS), 2018) one finds activation data, which are given here for 84 molecules.

The whole screen tested about 48,000 compounds, of which about 1,200 (2.5%) were called active. Roughly 2% stayed inconclusive and do not appear here.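 Rule for the calls: active = activation of at least 60% and not above a set upper limit (about 1 call in 100 departs from these limits); inconclusive = activation of 40% to 60%, or above that upper limit; inactive = activation under 40%.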 The list shows a part of the results.

In the test the target is Probable G-protein coupled receptor 32 (Homo sapiens) (UniProt O75388). Briefly: qHTS for Agonists of Human Resolvin D1 Receptor DRV1. The conditions noted are these: CHO-K1 GPR32 beta-arrestin PathHunter luminescence, 90 min; at 76.9 µM; stronger effect = higher value; zero percent set by DMSO-only wells. An excerpt: Endogenous resolution of inflammation is known to be transduced through various GPCRs and their natural mediators of lipid nature. Resolvin D1 (RvD1) is one of the active players in resolution of acute inflammation through regulation of anti-inflammatory pathways; it is known to enhance phagocytosis of human macrophages, limits neutrophils infiltration, etc. […] The search for GPR32-activating small molecules with anti-inflammatory effects similar to its natural omega-3 derivative ligand in order to use them as research tools for further studies of inflammation and its resolution was the goal of this screening project. For primary screening assay, we used CHO-K1 GPR32 beta-arrestin cell line (DiscoveRx, #93-0321C2A) and the PathHunter(R) beta-Arrestin Assay (DiscoveRx) which measures recruitment of beta-arrestin to the GPR32 and generates chemiluminescent signal. These engineered cells stably transfected with GPR32 co-express GPR32-fused small 42-amino acid fragment of beta-Gal called ProLinktrade mark, and […] -tagged beta-Arrestin fusion protein. When GPR32 is activated by a ligand, it stimulates binding of beta -Arrestin to ProLink-tagged GPR32, and two parts of beta-Gal complement forming a functional enzyme. Upon substrate (PathHunter(R) Detection reagent) addition, beta-Gal hydrolyzes it and generates a chemiluminescent signal.
Sequence of UniProt O75388 (O75388 whole entry, looked up): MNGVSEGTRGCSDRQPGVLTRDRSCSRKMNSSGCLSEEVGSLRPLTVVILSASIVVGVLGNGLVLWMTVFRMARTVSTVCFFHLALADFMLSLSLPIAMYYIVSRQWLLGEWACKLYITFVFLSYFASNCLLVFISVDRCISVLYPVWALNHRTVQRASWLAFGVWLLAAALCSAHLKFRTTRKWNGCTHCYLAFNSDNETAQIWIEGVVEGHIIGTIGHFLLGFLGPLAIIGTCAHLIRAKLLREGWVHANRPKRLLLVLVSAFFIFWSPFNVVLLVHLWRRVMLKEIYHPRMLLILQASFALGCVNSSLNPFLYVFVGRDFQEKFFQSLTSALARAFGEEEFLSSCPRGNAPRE
The cells were thawed and plated in thawing media containing F-12 HAM (Invitrogen, #11765-054), 10% FBS (Invitrogen, #10082), 1x Glutamine, and 1x Pen/Strep onto the 175-mm flask for 24 hours. Then, thawing media was replaced with Growth media which contains 800microg/mL Geneticin (Invitrogen, #10131) and 300microg/mL Hygromycin B (Invitrogen, #10687) in addition to described above. For the assay, the cells were harvested at ~80% confluent stage with Cell Dissociation buffer (Gibco, #13151), and seeded at 2,500 cells/ 3microL/well in assay media (PathHunter(R) Cell Plating Reagent, DiscoverX, #93-0563R1B) using MultiDrop Combi dispenser (Thermo Scientific, Logan, UT) onto white solid bottom tissue culture-treated 1536-well plates (Greiner # 789173-F) and allowed to attach overnight at 37 degrees C, 95% humidity, 5% CO2, . Next, 23nL/well of compound solutions in DMSO were added with a Pin Tool (Kalypsis, San Diego, CA) to the assay plates. As the basal control (EC0), 23 nL/well of DMSO was used on each plate. The cells were incubated in the presence of compounds or DMSO for 90 minutes at 37 degrees C, 5% CO2. Subsequently, 1.5microL/well of PathHunter(R) Detection Reagent prepared per the manufacturer's instructions was added to the assay plates with BioRAPTR FRDtrade mark dispenser (Beckman Coulter, San Francisco, CA) and incubated for 1 hour at ambient temperature prior to the measurement of the luminescent signal on ViewLux(R) uHTS Microplate Imager (Perkin Elmer, Waltham, MA).
As to `Cc1cc(C)cc(NC(=O)C(=O)NCC(c2cccnc2)N2CCOCC2)c1` (centres undefined), the activation was inactive: 3.7%. For the molecule `Cc1ccccc1OCCSc1nnc(-c2cccs2)o1`, the activation was inactive: 5.89%.

With `Cc1nc(Nc2ncc(C(=O)Nc3c(C)cccc3Cl)s2)cc(N2CCN(CCO)CC2)n1`, the activation is inactive: 28.5%. Regarding `COc1ccc(Cl)cc1NC(=O)Cn1c(=O)n(Cc2ccc(F)cc2)c(=O)c2cccnc21`, the activation was inactive: -8.69%. For `CCN(CCO)CCCC(C)Nc1ccnc2cc(Cl)ccc12` (centres undefined), the activation was inactive: -1.44%.

Regarding `CCC(C(=O)NCCC(C)C)N(C(=O)Cn1nnc(-c2ccc(C)cc2)n1)c1cccc(O)c1` (centres undefined), the activation was inactive: -10.8%. Take `Cc1ccc(NC(=O)Cn2c(=O)n(CCC(C)C)c(=O)c3cccnc32)cc1C`: the activation is inactive: 13.7%. As to `COc1ccccc1N1CCN(C(=O)Cn2c(=O)nc(-c3ccccc3)c3ccccc32)CC1`, the activation was inactive: 2.94%. As for `CC1CN(C(=O)N2CCC(C(=O)NCc3ccccc3F)CC2)c2cc(Cl)ccc2O1` (centres undefined), the figure is inactive: -0.525%. In the case of `CCOc1ccc(NC(=O)C(C)n2c(=O)cc(-c3ccccc3)c3c(C)nn(C)c32)cc1` (centres undefined) it was inactive: -11.8%.

In the case of `Cc1ccc(Cl)cc1-n1ncc2c(Nc3ccc4c(c3)OCCO4)ncnc21`, the activation was inactive: -6.12%. In the case of `O=C(c1ccc2c(c1)N(Cc1c(F)cccc1Cl)C(=O)c1ccccc1S2)N1CCCC1` it was inactive: -10.8%; in that of `CCc1ccc(NC(=O)c2ccc(Cn3nc(N4CCN(c5ccccc5)CC4)ccc3=O)o2)cc1`, inactive: 0.331%; in that of `COc1cc(NC(=O)CN2C(=O)COc3ccc(S(=O)(=O)NC4CCCC4)cc32)cc(OC)c1`, inactive: -16.5%.

For `CC(=O)N1CCCC1c1nc2ccccc2n1Cc1ccc(F)cc1` (centres undefined), the activation is inactive: 4.84%. As for `COc1ccc(-c2cc3ncc(C(=O)c4cc([N+](=O)[O-])ccc4O)cn3n2)cc1`, the figure is inactive: 13.7%; as for `O=C(Nc1cccc2cccnc12)c1ccc(-c2cccc(Cl)c2)o1`, inactive: 11.3%; as for `CC1CCc2c(sc3nnn(CC(=O)Nc4c(C(C)C)cccc4C(C)C)c(=O)c23)C1` (centres undefined), inactive: -9.84%.

In the case of `COc1cc(NS(=O)(=O)c2c(C(=O)N3CCCCC3)c(C)n(C)c2C)cc(OC)c1OC`, the activation was inactive: 6.26%. As for `CCCn1c2ccccc2c2cnn(CC(=O)NCCCN(CC)c3ccccc3)c(=O)c21`, the activation was inactive: -25.7%. Turning to `O=C(Nc1sc2c(c1C(=O)NCC1CCCO1)CCC2)c1cc(=O)c2cc(Cl)ccc2o1` (centres undefined), the activation is inactive: -9.93%. `Cn1nnnc1SCCCNCc1cc(Br)ccc1OCc1ccccc1F`: the activation was inactive: 26.3%. Consider `CCOC(=O)c1cc(-c2ccccc2)n(CC(=O)Nc2ccccc2OCC)c1C`, for which the activation was inactive: -11.4%. As for `COc1cccc(NC(=O)CCCn2c(=O)c3cccn3c3cccnc32)c1`, the activation was inactive: -27.1%. Regarding `Cc1ccc(CCNC(=O)c2ccc3c(c2)N(Cc2ccccc2F)C(=O)c2ccccc2S3=O)cc1` (centres undefined), the activation was inactive: 11.8%. With `Fc1ccc(-c2csc(=Nc3cccc(C(F)(F)F)c3)n2Cc2ccc3c(c2)OCO3)cc1`, the activation was inactive: 3.63%. Turning to `CCOC(=O)c1c(S(=O)(=O)NCC(=O)Nc2ccc(C(C)=O)cc2)c(C)n(C)c1C`, the activation is inactive: -6.17%. In the case of `COc1ccc(-c2nc(CCNC(=O)c3ccccc3)cs2)cc1OC` it was inactive: -4.93%; in that of `Fc1ccc(-c2cc(-c3ccccc3)c3c(n2)-c2ccccc2OC3)cc1`, inactive: -1.07%. As for `Cc1cccc(C)c1NC(=O)CCCn1c(=O)c2cccn2c2ccccc21`, the figure is inactive: -18.6%; as for `O=C1C(=O)N(C2CCNCC2)CCN1Cc1ccccc1`, inactive: -0.782%; as for `CC(=O)Nc1c(C)nn(-c2ccccc2)c1N1CCC(C(=O)Nc2ccccc2C(F)(F)F)CC1`, inactive: -0.628%. Consider `O=C(CN1c2ccc(Br)cc2-c2ccccc2S1(=O)=O)N1CCCCC1`, for which the activation was inactive: -14.2%. As for `Cc1ccc(NC(=O)N2CCN(Cc3nc4ccc(C)cc4o3)CC2)cc1`, the figure is inactive: -8.97%. Turning to `COc1cccc(Nc2nc3c(S(=O)(=O)c4cc(C)ccc4C)nnn3c3ccsc23)c1`, the activation was inactive: -6.56%.

For the molecule `CCN1CCc2nc3sc(C(=O)Nc4ccccc4OC(F)(F)F)c(N)c3cc2C1`, the activation was inactive: -17.3%. As to `Cc1cc(C)c(NC(=O)CSC2=Nc3ccccc3C3=NC(CC(=O)NCc4cccs4)C(=O)N23)c(C)c1` (centres undefined), the activation was inactive: -19.3%. Regarding `CC(C)c1ccc2c(c1)c(SC(C)(C)C)c(CC(C)(C)C(=O)O)n2Cc1ccc(Cl)cc1`, the activation was inactive: -7.85%. With `Cc1cc(=O)c2cc(C(=O)Nc3ccc(F)cc3)ccc2[nH]1`, the activation was inactive: 6.44%. Regarding `CCOC(=O)N1CCN(S(=O)(=O)N2CCCC(C(=O)NCc3cc(Br)ccc3OC)C2)CC1` (centres undefined), the activation was inactive: 13.6%. As for `Cc1cccn2c(=O)c(C(=O)NC(C)c3ccccc3)c(O)nc12` (centres undefined), the figure is inactive: -12.6%. Take `CCOc1ccc(Nc2oc(/C=C/c3ccc(OC)c(OC)c3)nc2C#N)cc1`: the activation is inactive: -15%.

With `COc1ccc(CNc2oc(/C=C/c3cc(OC)c(OC)c(OC)c3)nc2C#N)cc1`, the activation was inactive: -24.5%. For `O=C(Cn1c(-c2cccs2)cc2cc(F)ccc21)N1CCN(c2ccccc2)CC1`, the activation was inactive: -14.7%. With `COc1ccc(C)cc1-n1nnc(S(=O)(=O)c2ccc(C)cc2)c1C`, the activation was inactive: 9.94%. As to `COc1ccc2c(C)c(CCC(=O)NCc3ccccc3OC)c(=O)oc2c1`, the activation was inactive: 4.97%. In the case of `CN1CCCCC1CCN1c2ccccc2Sc2ccc(S(C)=O)cc21` (centres undefined) it was active: 64.5%.

With `CCN(CC)S(=O)(=O)c1ccc(C(=O)NC2CC(=O)N(c3ccc(OC)c(OC)c3)C2)cc1` (centres undefined), the activation is inactive: -5.41%. Consider `O=C(COc1ccc(Cl)cc1)NCC(c1ccco1)S(=O)(=O)c1ccc(F)cc1` (centres undefined), for which the activation is inactive: -13.8%. As for `CCOCCCNC(=O)C(=O)Nc1c2c(nn1-c1ccccc1)CSC2`, the figure is inactive: -28.1%; as for `Cc1ccc(N(CC(=O)NCCSc2ccccc2)S(=O)(=O)c2ccc(F)cc2)cc1`, inactive: 37.9%; as for `CC(=O)c1ccc(NC(=O)c2cc3sccc3n2Cc2ccc(Cl)cc2)cc1`, inactive: 23.3%. Regarding `COCCCn1c(=O)c2sccc2n2c(CCCC(=O)Nc3cccc(OC)c3)nnc12`, the activation was inactive: -3.12%. As for `COc1ccc(CNC(=O)c2cc3cccc4c3n2CC(C)S4)cc1OC` (centres undefined), the figure is inactive: -23.5%; as for `COc1ccc(Cl)cc1NC(=O)Cn1nc(C(F)(F)F)c2c1CCCC2`, inactive: 4.04%; as for `Cc1cccc(NC(=O)C2CCCN(S(=O)(=O)c3ccc4c(c3)CCCC(=O)N4)C2)c1` (centres undefined), inactive: 13.7%. For the molecule `COCCCn1c(SCC(=O)Nc2ccc(F)cc2)nc2c(sc3ccccc32)c1=O`, the activation is inactive: -10.2%.

`CCOc1ccc(-n2c(SCC(=O)N3CCc4ccccc43)nc3c([nH]c4ccccc43)c2=O)cc1`: the activation was inactive: -9.13%.

For the molecule `COc1cccc2c1ncc1c(-c3ccc(C)cc3)nn(-c3cccc([N+](=O)[O-])c3)c12`, the activation was inactive: -0.974%.

Consider `CCC(=O)Nc1cc(-c2cccc(C)c2)nn1-c1ccccc1`, for which the activation is inactive: -10.6%.

With `Cc1cccc(-c2nc(SCC(=O)N3CCc4ccccc43)c3c(=O)n(C)c(=O)n(C)c3n2)c1`, the activation is inactive: -7.19%. For `COc1ccc(N2CCN(Cc3nc4c(c(=O)[nH]c(=O)n4C)n3Cc3ccc(Cl)cc3)CC2)cc1`, the activation was inactive: -9.56%. As for `CCOC(=O)CNc1nc(Oc2ccc(=O)n(C)n2)nc(N(CC)CC)n1`, the figure is inactive: 9.27%; as for `CCCN(Cc1cccs1)C(=O)Nc1ccc(OCC)cc1`, inactive: -14.3%; as for `COc1ccc(NC(=O)Cn2c(=O)c(-c3cc(C)ccc3NC(C)=O)nc3ccccc32)c(OC)c1`, inactive: -5.76%. As for `Cc1cc(C)cc(NC(=O)C(=O)NCC(c2ccc3c(c2)OCO3)N2CCN(C)CC2)c1` (centres undefined), the figure is inactive: -9.33%; as for `Cc1cc(=O)[nH]c2nnc(SCC(=O)Nc3ccc(OC(F)(F)F)cc3)n12`, inactive: 39.9%.

For the molecule `Cc1ccc(C2CCN(C(=O)c3cnn(-c4cccc(Cl)c4)c3C3CCN(C(=O)OC(C)(C)C)CC3)C2)cc1` (centres undefined), the activation is inactive: -20.8%. In the case of `O=C(COc1ccccc1)NCc1ccc2c(c1)CCN2C(=O)c1ccc(Cl)cc1` it was inactive: 0.0283%; in that of `COc1ccc(NC(=O)N(CCC(C)C)C(C)c2cccs2)c(OC)c1` (centres undefined), inactive: -21.8%.

As to `CC(C)Cn1c(=O)n(C)c(=O)c2[nH]cnc21`, the activation was inactive: -5.17%.

In the case of `COc1ccc(OC)c(NC(=O)c2cc(-c3ccc(Cl)s3)nc3ccccc23)c1`, the activation was inactive: -6.73%. For `COc1ccccc1CNC(=O)CCc1c(C)nn(-c2ccc(N3CCOCC3)nn2)c1C`, the activation was inactive: -18.4%. As for `NCc1nc2cccnc2n1Cc1ccccc1Cl`, the figure is inactive: -5.06%; as for `O=C(NCc1ccco1)c1ccc2c(c1)N(Cc1ccccc1)C(=O)c1ccccc1S2(=O)=O`, inactive: -19.3%; as for `COCCNc1ncnc2c1c(-c1ccccc1)cn2-c1ccc(C)c(Cl)c1`, inactive: -23.6%. For `CCCCOc1cc(CC2CNC(=O)N2)ccc1OC` (centres undefined), the activation is inactive: 7.99%. With `COc1ccc(NC(=O)CSc2nc3c([nH]c4ccccc43)c(=O)n2-c2ccccc2)c(OC)c1`, the activation is inactive: -25%. For `CCOc1ccc(NC(=O)Cn2c3ncccc3c(=O)n2-c2ccc(CC)cc2)cc1`, the activation was inactive: -7.85%. In the case of `COc1ccc(-n2ncc3c(NC(C)(C)CO)ncnc32)cc1` it was inactive: 9.04%. As for `Cc1nc2cccnc2n1C1CCN(S(C)(=O)=O)CC1`, the activation is inactive: 15.7%. In the case of `Cc1cc(S(=O)(=O)C(CNC(=O)c2ccc(OC(C)C)cc2)c2cccs2)ccc1F` (centres undefined) it was inactive: 1.23%; in that of `Cc1ccc(CNC(=O)c2oc3c(c2C)-c2nn(Cc4ccc(Cl)cc4)cc2CC3)cc1`, inactive: -20.4%; in that of `CCN(CC)S(=O)(=O)c1ccc(NC(=O)NCc2noc3ccc(C)cc23)cc1`, inactive: 31.3%.
